# Values quoted from earlier work, collected in publication PMC11006913.
# Positions count from the first letter of the chain named. The list shows a part of the results.
# Key:
# Conditions in all cases: PBM; conditions not shown; double strand, one strand shown; scale: upbm affinity estimate (log intensity, higher = more binding, comparable within an allelic series)
# [1] = target: NKX2-5 K183E (Homo sapiens) (UniProt P52952)
# [2] = target: NKX2-5 R190C (Homo sapiens) (UniProt P52952)
# [3] = target: NKX2-5 R161P (Homo sapiens) (UniProt P52952)
# [4] = target: PROP1 R112Q (Homo sapiens) (UniProt O75360)
# [5] = target: PITX2 L100Q (Homo sapiens) (UniProt Q99697)
# [6] = target: PITX2 R108H (Homo sapiens) (UniProt Q99697)
# [7] = target: PITX2 R130W (Homo sapiens) (UniProt Q99697)
# [8] = target: PITX2 T114P (Homo sapiens) (UniProt Q99697)
# [9] = target: PROP1 R99Q (Homo sapiens) (UniProt O75360)
# PBX4 (Homo sapiens) = target: T1, PBX4 (Homo sapiens) (UniProt Q9BYU1)
# T1 sequence: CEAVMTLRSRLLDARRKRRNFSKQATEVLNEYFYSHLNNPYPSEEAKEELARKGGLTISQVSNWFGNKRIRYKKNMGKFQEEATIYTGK
# [10] = target: T2, PBX4 R215Q (Homo sapiens) (UniProt Q9BYU1)
# T2 sequence: T1 sequence with R19Q
sequence,measurement,setting,value
CACCCTCA [8-mer CACCCTCA],binding signal,[1],10.6
same,binding signal,[2],10.3
ATCAATTG [8-mer ATCAATTG],binding signal,[1],11.3
same,binding signal,[3],11.9
same,binding signal,[2],11
same,binding signal,[4],12.5
AAGTGTAA [8-mer AAGTGTAA],binding signal,[1],10.9
same,binding signal,[2],10.7
ACTTACAC [8-mer ACTTACAC],binding signal,[1],11.1
same,binding signal,[2],10.8
CAGGGCGG [8-mer CAGGGCGG],binding signal,[1],10
same,binding signal,[3],10.1
same,binding signal,[2],10
same,binding signal,[5],8.08
same,binding signal,[6],8.04
same,binding signal,[7],7.86
same,binding signal,[8],8.08
ATAAGGGG [8-mer ATAAGGGG],binding signal,[1],11.1
same,binding signal,[2],10.5
GCACTCAC [8-mer GCACTCAC],binding signal,[1],10.6
same,binding signal,[2],10.4
TACTCCAA [8-mer TACTCCAA],binding signal,[1],10.9
same,binding signal,[2],10.7
AAGGGTCT [8-mer AAGGGTCT],binding signal,[1],10.5
same,binding signal,[2],10.3
GAGTGCCC [8-mer GAGTGCCC],binding signal,[1],10.5
same,binding signal,[2],10.1
GACCATTA [8-mer GACCATTA],binding signal,[1],11
same,binding signal,[2],10.9
GCCCTCAA [8-mer GCCCTCAA],binding signal,[1],10.6
same,binding signal,[2],10.3
ACCCTCTA [8-mer ACCCTCTA],binding signal,[1],10.8
same,binding signal,[2],10.6
CAAGTAGG [8-mer CAAGTAGG],binding signal,[1],10.7
same,binding signal,[2],10.4
GCACTTCC [8-mer GCACTTCC],binding signal,[1],10.5
same,binding signal,[2],10.3
CTGGCGGC [8-mer CTGGCGGC],binding signal,[1],10.1
same,binding signal,[3],10.3
same,binding signal,[2],10.1
same,binding signal,[4],11
same,binding signal,[9],11
CAAGTAGA [8-mer CAAGTAGA],binding signal,[1],10.9
same,binding signal,[2],10.7
GAAAGTGC [8-mer GAAAGTGC],binding signal,[1],10.5
same,binding signal,[2],10.3
CCGGGCCG [8-mer CCGGGCCG],binding signal,[1],9.86
same,binding signal,[3],10
same,binding signal,[2],9.82
same,binding signal,[5],7.96
same,binding signal,[6],7.65
same,binding signal,[7],7.54
same,binding signal,[8],7.74
GACCCTCA [8-mer GACCCTCA],binding signal,[1],10.5
same,binding signal,[2],10.3
ACGCCCCA [8-mer ACGCCCCA],binding signal,[1],10.3
same,binding signal,[3],10.6
same,binding signal,[2],10.2
same,binding signal,PBX4 (Homo sapiens),9.91
same,binding signal,[10],9.84
same,binding signal,[5],8.52
same,binding signal,[6],8.03
same,binding signal,[7],8.06
same,binding signal,[8],8.16
CGCAGGGA [8-mer CGCAGGGA],binding signal,[1],10.1
same,binding signal,[3],10
same,binding signal,[2],10
same,binding signal,[5],8.35
same,binding signal,[6],8.18
same,binding signal,[7],7.99
same,binding signal,[8],8.1
AAGAGCCC [8-mer AAGAGCCC],binding signal,[1],10.4
same,binding signal,[2],10.2
GCCACTTA [8-mer GCCACTTA],binding signal,[1],12.4
same,binding signal,[3],13.2
same,binding signal,[2],10.8
same,binding signal,[4],12.1
same,binding signal,[9],11.9
ACCCTTAG [8-mer ACCCTTAG],binding signal,[1],10.5
same,binding signal,[2],10.4
CAGCGCCG [8-mer CAGCGCCG],binding signal,[1],9.98
same,binding signal,[3],9.89
same,binding signal,[2],10
same,binding signal,[5],8.22
same,binding signal,[6],7.93
same,binding signal,[7],7.83
same,binding signal,[8],7.95
CAGGCGCG [8-mer CAGGCGCG],binding signal,[1],10
same,binding signal,[3],10.1
same,binding signal,[2],9.98
same,binding signal,[5],8.26
same,binding signal,[6],8.09
same,binding signal,[7],8.02
same,binding signal,[8],8.07
CCGAGTGC [8-mer CCGAGTGC],binding signal,[1],10.3
same,binding signal,[2],10.3
CCGGGTCC [8-mer CCGGGTCC],binding signal,[1],9.82
same,binding signal,[3],10.2
same,binding signal,[2],9.83
same,binding signal,[4],10.8
same,binding signal,[9],10.9
GGGGCACC [8-mer GGGGCACC],binding signal,[1],10.2
same,binding signal,[3],10.3
same,binding signal,[2],9.99
same,binding signal,[5],7.87
same,binding signal,[6],7.93
same,binding signal,[7],7.79
same,binding signal,[8],7.96
ATTAAGGG [8-mer ATTAAGGG],binding signal,[1],10.9
same,binding signal,[2],10.5
CTCCACTC [8-mer CTCCACTC],binding signal,[1],10.7
same,binding signal,[2],10.3
AAGAGGAC [8-mer AAGAGGAC],binding signal,[2],10.4
GCTTATTA [8-mer GCTTATTA],binding signal,[2],10.9
AAGGGCCC [8-mer AAGGGCCC],binding signal,[2],10.2
CAGAGTGG [8-mer CAGAGTGG],binding signal,[2],10.4
AGAGTGCG [8-mer AGAGTGCG],binding signal,[1],10.5
same,binding signal,[2],10.3
CCACTTCG [8-mer CCACTTCG],binding signal,[2],10.4
CAAGAGGG [8-mer CAAGAGGG],binding signal,[2],10.3
